The other results are listed elsewhere or left out.
Target: no compound (DMSO)
Assay: log2 fold change of degron read counts, EGFP-low vs EGFP+ sorted cells; higher = lower degron-EGFP level without compound (poor expression or instability)
Conditions: compound: DMSO control; 18 h
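Also: jurkat cells carrying a lentiviral library of mutant zinc finger degrons fused to EGFP plus mCherry, mCherry+ cells FACS sorted, degron abundance counted by next-generation sequencing.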

Question: With FSCPICGHCFTQKGNLLRHIKL as the sequence, how does the “log2 fold change of degron read counts” value read?
Answer: Its value is -0.462.

Question: Which “log2 fold change of degron read counts” value does the source give for FDCEQCGAHFTQKGNLLRHIKL here?
Answer: Its value is -1.1.

Question: How did the “log2 fold change of degron read counts” value turn out when FYCEQCGAFFTQKGNLLRHIKL was run?
Answer: Its value is -0.143.

Question: How did the “log2 fold change of degron read counts” value turn out when FYCEICGRHFTQKGNLLRHIKL was run?
Answer: The value was -0.31.

Question: FMCDVCGAIFTQKGNLLRHIKL was tested. Which “log2 fold change of degron read counts” value did it give?
Answer: The value was -0.445.

Question: With FLCEICGRGFTQKGNLLRHIKL as the sequence, how does the “log2 fold change of degron read counts” value read?
Answer: The value was -1.94.

Question: With FYCPICGADFTQKGNLLRHIKL as the sequence, how does the “log2 fold change of degron read counts” value read?
Answer: The value was -0.043.

Question: How did the “log2 fold change of degron read counts” value turn out when LNCPICGFYCTQKGNLLRHIKL was run?
Answer: The value was 1.45.

Question: With FECPQCGALFTQKGNLLRHIKL as the sequence, how does the “log2 fold change of degron read counts” value read?
Answer: Its value is -1.11.

Question: How did the “log2 fold change of degron read counts” value turn out when FWCDVCGAIFTQKGNLLRHIKL was run?
Answer: The value was 0.889.

Question: Which “log2 fold change of degron read counts” value does the source give for FHCEICGAEFTQKGNLLRHIKL here?
Answer: Its value is -3.12.

Question: With FECDICGAFFTQKGNLLRHIKL as the sequence, how does the “log2 fold change of degron read counts” value read?
Answer: Its value is -1.62.

Question: For FKCEICGRDFTQKGNLLRHIKL, which “log2 fold change of degron read counts” value is on record?
Answer: The value was -1.35.

Question: How did the “log2 fold change of degron read counts” value turn out when FMCPQCGAPFTQKGNLLRHIKL was run?
Answer: Its value is -1.03.

Question: With FTCEQCGADFTQKGNLLRHIKL as the sequence, how does the “log2 fold change of degron read counts” value read?
Answer: Its value is -1.13.

Question: How did the “log2 fold change of degron read counts” value turn out when FTCNQCGAHFTQKGNLLRHIKL was run?
Answer: Its value is -0.627.

Question: Which “log2 fold change of degron read counts” value does the source give for FWCDVCGACFTQKGNLLRHIKL here?
Answer: The value was -0.683.

Question: For FMCSVCGHQFTQKGNLLRHIKL, which “log2 fold change of degron read counts” value is on record?
Answer: The value was -0.972.

Question: How did the “log2 fold change of degron read counts” value turn out when FFCPQCGAQFTQKGNLLRHIKL was run?
Answer: The value was -0.955.

Question: FRCPVCGADFTQKGNLLRHIKL was tested. Which “log2 fold change of degron read counts” value did it give?
Answer: The value was -1.35.

Question: With FFCDQCGAVFTQKGNLLRHIKL as the sequence, how does the “log2 fold change of degron read counts” value read?
Answer: The value was -0.393.

Question: Which “log2 fold change of degron read counts” value does the source give for LDCEICGFMCTQKGNLLRHIKL here?
Answer: The value was 1.15.

Question: With FICNQCGHVFTQKGNLLRHIKL as the sequence, how does the “log2 fold change of degron read counts” value read?
Answer: The value was -0.583.

Question: FDCDQCGAYFTQKGNLLRHIKL was tested. Which “log2 fold change of degron read counts” value did it give?
Answer: Its value is -0.0859.

Question: For LTCNQCGFGCTQKGNLLRHIKL, which “log2 fold change of degron read counts” value is on record?
Answer: The value was 0.394.

Question: With FHCSVCGHMFTQKGNLLRHIKL as the sequence, how does the “log2 fold change of degron read counts” value read?
Answer: The value was 0.36.

Question: For FCCDICGAWFTQKGNLLRHIKL, which “log2 fold change of degron read counts” value is on record?
Answer: Its value is -0.371.

Question: FDCDQCGAPFTQKGNLLRHIKL was tested. Which “log2 fold change of degron read counts” value did it give?
Answer: The value was -0.96.

Question: With FTCEICGRTFTQKGNLLRHIKL as the sequence, how does the “log2 fold change of degron read counts” value read?
Answer: Its value is -1.46.

Question: How did the “log2 fold change of degron read counts” value turn out when LMCEICGFHCTQKGNLLRHIKL was run?
Answer: The value was 0.347.

Question: Which “log2 fold change of degron read counts” value does the source give for LVCEICGFQCTQKGNLLRHIKL here?
Answer: Its value is -0.194.

Question: FECNQCGRCFTQKGNLLRHIKL was tested. Which “log2 fold change of degron read counts” value did it give?
Answer: Its value is -1.53.

Question: For FKCNICGACFTQKGNLLRHIKL, which “log2 fold change of degron read counts” value is on record?
Answer: Its value is -0.462.

Question: With FMCEVCGAVFTQKGNLLRHIKL as the sequence, how does the “log2 fold change of degron read counts” value read?
Answer: The value was -1.06.

Question: How did the “log2 fold change of degron read counts” value turn out when FGCNICGAGFTQKGNLLRHIKL was run?
Answer: Its value is 0.0161.

Question: Which “log2 fold change of degron read counts” value does the source give for LICPICGFSCTQKGNLLRHIKL here?
Answer: Its value is 0.545.

Question: Which “log2 fold change of degron read counts” value does the source give for FYCNQCGREFTQKGNLLRHIKL here?
Answer: The value was -0.248.

Question: For FKCSVCGHVFTQKGNLLRHIKL, which “log2 fold change of degron read counts” value is on record?
Answer: Its value is -0.343.

Question: Which “log2 fold change of degron read counts” value does the source give for FCCEICGRQFTQKGNLLRHIKL here?
Answer: Its value is -1.5.

Question: FRCNQCGHRFTQKGNLLRHIKL was tested. Which “log2 fold change of degron read counts” value did it give?
Answer: The value was -0.158.

Question: Which “log2 fold change of degron read counts” value does the source give for FACPICGADFTQKGNLLRHIKL here?
Answer: Its value is -0.433.

Question: For FWCPQCGAMFTQKGNLLRHIKL, which “log2 fold change of degron read counts” value is on record?
Answer: The value was 0.83.

Question: For FMCPICGRYFTQKGNLLRHIKL, which “log2 fold change of degron read counts” value is on record?
Answer: The value was 0.804.

Question: FECNICGAQFTQKGNLLRHIKL was tested. Which “log2 fold change of degron read counts” value did it give?
Answer: Its value is -0.448.

Question: With FDCNQCGHDFTQKGNLLRHIKL as the sequence, how does the “log2 fold change of degron read counts” value read?
Answer: The value was -0.209.

Question: FTCNVCGAHFTQKGNLLRHIKL was tested. Which “log2 fold change of degron read counts” value did it give?
Answer: Its value is -0.599.

Question: For LYCEICGFRCTQKGNLLRHIKL, which “log2 fold change of degron read counts” value is on record?
Answer: Its value is 0.542.

Question: Which “log2 fold change of degron read counts” value does the source give for FACEVCGASFTQKGNLLRHIKL here?
Answer: The value was -1.42.

Question: With FRCEICGRVFTQKGNLLRHIKL as the sequence, how does the “log2 fold change of degron read counts” value read?
Answer: Its value is -1.09.

Question: For FHCNQCGHNFTQKGNLLRHIKL, which “log2 fold change of degron read counts” value is on record?
Answer: The value was 0.00372.
